Bacterial growth in Mueller-Hinton broth at 37 °C with the drug at the dose given, alone or with nitroxoline. Checkerboards on E. coli BW25113: OD600 at the end of exponential growth as a fraction of no-drug wells. Colistin series: OD595 at 10.75 h as a fraction of the colistin-free well. 1 = full growth, lower = more inhibition. No active / inactive call per well. Checkerboard doses stop near each drug's IC75, and their values pile up at 1, as if capped there. Colistin and gentamicin are mixtures; one drawing stands for each.
System: Escherichia coli BW25113
Assay: growth relative to no-drug wells (fraction of no-drug control); higher = more growth, less inhibition
Method: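 8 x 8 checkerboard in cation-adjusted Mueller-Hinton broth at 37 °C; OD600 at the end of exponential growth as a fraction of no-drug wells, two biological replicates.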

CC(C)(O/N=C(\C(=O)N[C@@H]1C(=O)N2C(C(=O)[O-])=C(C[n+]3ccccc3)CS[C@H]12)c1csc(N)n1)C(=O)O [Ceftazidime] + Oc1ccc([N+](=O)[O-])c2cccnc12 [nitroxoline]
growth
Conditions | nitroxoline concentration 0.136 µg/ml | nitroxoline concentration 0.255 µg/ml | nitroxoline concentration 0.374 µg/ml | nitroxoline concentration 0.493 µg/ml | nitroxoline concentration 0.612 µg/ml | nitroxoline concentration 0.731 µg/ml | nitroxoline concentration 0.85 µg/ml
0.0094 µg/ml | 1 | 1 | 0.88 | 0.709 | 0.61 | 0.514 | 0.498
0.016 µg/ml | 1 | 1 | 0.929 | 0.734 | 0.5961 | 0.514 | 0.456
0.0187 µg/ml | 1 | 1 | 0.909 | 0.719 | 0.615 | 0.539 | 0.509
0.032 µg/ml | 1 | 1 | 0.987 | 0.7818 | 0.635 | 0.518 | 0.488
0.0375 µg/ml | 1 | 1 | 0.961 | 0.798 | 0.673 | 0.576 | 0.531
0.064 µg/ml | 1 | 1 | 0.955 | 0.751 | 0.614 | 0.505 | 0.51
0.075 µg/ml | 1 | 0.983 | 0.901 | 0.75 | 0.593 | 0.508 | 0.461

C[C@@H]1O[C@@H]1P(=O)(O)O [Fosfomycin] + Oc1ccc([N+](=O)[O-])c2cccnc12 [nitroxoline]
growth
Conditions | nitroxoline concentration 0.136 µg/ml | nitroxoline concentration 0.255 µg/ml | nitroxoline concentration 0.374 µg/ml | nitroxoline concentration 0.493 µg/ml | nitroxoline concentration 0.612 µg/ml | nitroxoline concentration 0.731 µg/ml | nitroxoline concentration 1.1 µg/ml
0.0625 µg/ml | 0.957 | 0.877 | 0.822 | 0.574 | 0.535 | 0.222 | 0.125
0.1075 µg/ml | 0.857 | 0.852 | 0.87 | 0.618 | 0.522 | 0.271 | 0.158
0.125 µg/ml | 0.7834 | 0.754 | 0.82 | 0.587 | 0.531 | 0.274 | 0.18
0.215 µg/ml | 0.6 | 0.587 | 0.56 | 0.44 | 0.327 | 0.16 | 0.124
0.25 µg/ml | 0.0125 | 0.0108 | 0.02 | 0.02 | 0.02 | 0.0167 | 0.0133
0.43 µg/ml | 0.0423 | 0.043 | 0.0404 | 0.0418 | 0.0395 | 0.0332 | 0.029
0.5 µg/ml | 0.0393 | 0.0409 | 0.0453 | 0.0402 | 0.0394 | 0.0315 | 0.0367

COc1cc(Cc2cnc(N)nc2N)cc(OC)c1OC [Trimethoprim]
nitroxoline concentration 0 µg/ml
Conditions | growth
0.0224 µg/ml | 0.849
0.042 µg/ml | 0.891
0.0616 µg/ml | 0.322
0.0812 µg/ml | 0.235
0.1008 µg/ml | 0.0333
0.1204 µg/ml | 0.0347
0.14 µg/ml | 0

O=C1CN(/N=C/c2ccc([N+](=O)[O-])o2)C(=O)N1 [Nitrofurantoin] + Oc1ccc([N+](=O)[O-])c2cccnc12 [nitroxoline]
growth
Conditions | nitroxoline concentration 0.136 µg/ml | nitroxoline concentration 0.255 µg/ml | nitroxoline concentration 0.374 µg/ml | nitroxoline concentration 0.493 µg/ml | nitroxoline concentration 0.612 µg/ml | nitroxoline concentration 0.731 µg/ml | nitroxoline concentration 0.85 µg/ml
0.75 µg/ml | 1 | 1 | 0.896 | 0.725 | 0.615 | 0.551 | 0.546
1.29 µg/ml | 1 | 0.98 | 0.906 | 0.733 | 0.604 | 0.586 | 0.548
1.5 µg/ml | 1 | 0.966 | 0.871 | 0.716 | 0.589 | 0.573 | 0.564
2.58 µg/ml | 0.755 | 0.815 | 0.742 | 0.645 | 0.517 | 0.522 | 0.464
3 µg/ml | 0.703 | 0.7 | 0.643 | 0.604 | 0.553 | 0.501 | 0.494
5.16 µg/ml | 0.162 | 0.0664 | 0.142 | 0.0484 | 0.0184 | 0.0456 | 0.0447
6 µg/ml | 0.15 | 0.0547 | 0.154 | 0.0536 | 0.0141 | 0 | 0.0219

C[C@H]1COc2c(N3CCN(C)CC3)c(F)cc3c(=O)c(C(=O)O)cn1c23 [Levofloxacin]
nitroxoline concentration 0 µg/ml
Conditions | growth
0.0005 µg/ml | 0.968
0.0009 µg/ml | 0.935
0.0013 µg/ml | 0.936
0.0017 µg/ml | 0.945
0.0022 µg/ml | 0.938
0.0026 µg/ml | 0.96
0.003 µg/ml | 0.988
